{"source": "PubChem BioAssay AID1671194", "about": "(National Center for Advancing Translational Sciences (NCATS), 2021)", "note": "Hit rate of the full screen: of about 140,000 compounds, about 240 (0.17%) were called active. A call without a number means that no potency is given here. This list was built around the results that the source calls inconclusive (neither active nor inactive); the mix of calls is not that of the screen. The call rests on the fitted dose curve; in most records, active means well fitted inhibition curve with a large enough effect; inconclusive means small, poorly fitted or top-dose-only effect; inactive means no such curve, though single readings can be large or run the other way. Potencies beside an inconclusive call are fits to weak or partial responses and may not hold up. Potency means the concentration at half of the fitted maximal effect; tags describe the fitted curve by direction and shape."}
{"experiment": "Primary qHTS assay for inhibitors of alpha-synuclein gene (SNCA) expression; further: nearly all actives have a fitted effect of over 45% in size", "conditions": "HEK-293 SNCA-luciferase knock-in, luminescence, 24 h; series mostly up to 57.2 µM"}
{"smiles": "Cn1nc(C2CCCN2)c2c(C(=O)NCc3ccc(F)cc3)cc(C3CC3)nc21", "note": "(stereo not given)", "Potency": "inactive"}
{"smiles": "CCOC(=O)C1CCCN(C(=O)c2ccc3oc(-c4cccnc4C)nc3c2)C1", "note": "(stereo not given)", "Potency": "inactive"}
{"smiles": "O=C1CCN(C(=O)Cn2c(=O)oc3ccccc32)CCCCCCN1", "Potency": "inconclusive: 5.01 µM [inhibitor, partial curve]"}
{"smiles": "C=CCNC(=O)[C@@H]1Cc2cn(Cc3cccnc3)c3cccc(c23)[C@H](CC(C)C)N1", "Potency": "inconclusive: 39.8 µM [inhibitor, single point]"}
{"smiles": "CCCN1C(C(=O)c2ccccc2)=C(OC(=O)COc2ccccc2)c2ccccc2S1(=O)=O", "Potency": "inconclusive: 20 µM [inhibitor, single point]"}
{"smiles": "CCOc1ccc(NC(=O)CN2C(=O)C(c3ccccc3)=NC23CCC(C)CC3)cc1", "note": "(stereo not given)", "Potency": "inconclusive: 25.1 µM [inhibitor, partial curve, poor fit]"}
{"smiles": "CNC(=O)c1c(C)nc2n1CCC(Nc1ccccc1C)C2", "note": "(stereo not given)", "Potency": "inactive"}
{"smiles": "COc1cccc(-c2cccc(CN3CCCC3C(=O)NCc3cccs3)c2)c1", "note": "(stereo not given)", "Potency": "inactive"}
{"smiles": "COc1cccc(-c2noc(-c3nc(-c4ccc5c(c4)OCO5)no3)n2)c1OC", "Potency": "inconclusive: 39.8 µM [inhibitor, single point]"}
{"smiles": "CC(C)CS(=O)(=O)c1oc(-c2ccc(F)cc2)nc1S(=O)(=O)c1ccccc1", "Potency": "inconclusive: 5.01 µM [inhibitor, full curve, poor fit]"}
{"smiles": "COCC(=O)NCCc1ncc(C)n1C1CCCCCC1", "Potency": "inactive"}
{"smiles": "CC1=C[C@@H](CN(C)CCN(C)C)[C@H](C(C)C)C[C@H]1Cc1nnc(-c2ccccc2)o1", "Potency": "inconclusive: 22.4 µM [inhibitor, partial curve, poor fit]"}
{"smiles": "O=C(NCc1ccccn1)c1nc2sccn2c1-c1ccncc1", "Potency": "inactive"}
{"smiles": "O=C(CN1C(=O)C2(CCCCC2)C1c1ccccc1)NCCN1CCCC1", "note": "(stereo not given)", "Potency": "inactive"}
{"smiles": "CCOC(=O)c1cc(-c2ccccc2)n(-c2cccc(C(=O)Nc3cccc(F)c3)c2)c1C", "Potency": "inconclusive: 0.158 µM [inhibitor, partial curve, poor fit]"}
{"smiles": "O=C(NC1CCN(c2nccc(Nc3ccccc3F)n2)CC1)c1ccccc1", "Potency": "inactive"}
{"smiles": "CCN1C(=O)C2CC3(CCN(C(=O)CCc4c[nH]c5ccccc45)CC3)CN2C1=O", "note": "(stereo not given)", "Potency": "inactive"}
{"smiles": "CCNC(=O)N[C@@H]1C=C[C@@H](c2c(C)nn(-c3ccccc3[N+](=O)[O-])c2C)C1", "Potency": "inactive"}
{"smiles": "CCc1ccc(N2CC(c3noc(-c4ccc5c(c4)OCO5)n3)CC2=O)cc1", "note": "(stereo not given)", "Potency": "inactive"}
{"smiles": "CCN1C(=O)C2CC3(CCN(C(=O)c4nn(C)c5ccccc45)CC3)CN2C1=O", "note": "(stereo not given)", "Potency": "inactive"}
{"smiles": "CCc1ccccc1NC(=O)CN1C=C(C(=O)OC)C(C)=NS1(=O)=O", "Potency": "inconclusive: 3.16 µM [inhibitor, full curve]"}
{"smiles": "COCCN1Cc2[nH]nc(-c3ccc(OC)c(OC)c3)c2CC1=O", "Potency": "inactive"}
{"smiles": "CCc1ccccc1-n1nc(-c2c(C)nc3scc(CC(=O)NCCC(C)C)n3c2=O)cc1C", "Potency": "inconclusive: 3.16 µM [inhibitor, full curve, poor fit]"}
{"smiles": "COc1ccc(-c2noc(CC3CCN(C(=O)c4cc(OC)c(OC)c(OC)c4)CC3)n2)cc1", "Potency": "inactive"}
{"smiles": "CCOCCNC(=O)c1cc(-c2ccc(Cl)cc2Cl)nc2c1cnn2C", "Potency": "inactive"}
{"smiles": "O=C(O)C1(Cc2ccccc2F)CCCN(c2ncnc3sccc23)C1", "note": "(stereo not given)", "Potency": "inactive"}
{"smiles": "O=C(Nc1cccnc1)c1cc(-c2ccccc2F)cc2c1OCCN2Cc1cccnc1", "Potency": "inconclusive: 5.62 µM [inhibitor, full curve, poor fit]"}
{"smiles": "Cc1ccc(C)c(N2CCN(C(=O)c3cc(S(=O)(=O)N4CCCCCC4)cn3C)CC2)c1", "Potency": "inconclusive: 39.8 µM [inhibitor, single point]"}
{"smiles": "CCN(CC)S(=O)(=O)c1ccc2oc(C(=O)NCc3ccccc3OC)c(C)c2c1", "Potency": "inconclusive: 25.1 µM [inhibitor, single point]"}
{"smiles": "CCNC(=O)c1coc(COc2ccc3c(c2)C(c2ccc(F)cc2)N(C(=O)CC(C)C)CC3)n1", "note": "(stereo not given)", "Potency": "inactive"}
{"smiles": "CCOCCCN(Cc1ccco1)C(=O)c1cc2c(=O)[nH]c3ccc(C)cc3c2s1", "Potency": "inconclusive: 39.8 µM [inhibitor, single point]"}
{"smiles": "O[C@@H]1C[C@@H](c2nnc3n2CCN(C2CCCCC2)C3)N(Cc2cccnc2)C1", "Potency": "inconclusive: 28.2 µM [inhibitor, partial curve, poor fit]"}
{"smiles": "COc1ccc(Cn2ccn3nc4c(c3c2=O)CCCC4)cc1F", "Potency": "inactive"}
{"smiles": "COc1ccc(C(=O)N2CCC[C@@H]2C(=O)N2CCC(N3CCOC3=O)CC2)cc1", "Potency": "inactive"}
{"smiles": "COc1ccccc1CNC(=O)c1cc2c(s1)-c1ccccc1OC2", "Potency": "inactive"}
{"smiles": "O=C(NCc1cccnc1)[C@@H]1C[C@H](c2ccc(F)cc2)N(Cc2ccccc2Cl)C1", "Potency": "inconclusive: 56.2 µM [inhibitor, single point]"}
{"smiles": "COc1ccc(NC(=O)Cn2c(C)cc3nc4n(c(=O)c32)CCC4)c(OC)c1", "Potency": "inconclusive: 8.91 µM [inhibitor, single point]"}
{"smiles": "COc1ccccc1CN1CCC(CNC(=O)c2cnn(-c3ccc(Cl)cc3)c2C2CCN(C(=O)OC(C)(C)C)CC2)CC1", "Potency": "inconclusive: 39.8 µM [inhibitor, single point]"}
{"smiles": "COc1cccc(CN2CC[C@H](c3nc4cc(Cl)ccc4o3)C2)c1", "Potency": "inactive"}
{"smiles": "CCc1ccc(S(=O)(=O)c2c(C(=O)c3ccccc3)cnc3ccc(CC)cc23)cc1", "Potency": "inconclusive: 39.8 µM [inhibitor, single point]"}
{"smiles": "CC(C)CNc1ccc2c(n1)C(C)(C(=O)NCc1ccco1)CN(Cc1ccccc1)C2", "note": "(stereo not given)", "Potency": "inconclusive: 2.51 µM [inhibitor, full curve, poor fit]"}
{"smiles": "COc1ccc(C(=O)N2c3ccc(C)cc3C(C)(c3ccccc3)CC2(C)C)cc1", "note": "(stereo not given)", "Potency": "inconclusive: 25.1 µM [inhibitor, single point]"}
{"smiles": "CN(C)C(=O)c1ccc2ccnn2c1", "Potency": "inactive"}
{"smiles": "O=S1(=O)NCC2(CCN(Cc3c[nH]c4ccccc34)CC2)Oc2ncccc21", "Potency": "inactive"}
{"smiles": "COc1ccc(-c2cc(-c3cccc4[nH]ncc34)cn3cncc23)cn1", "Potency": "inconclusive: 28.2 µM [inhibitor, partial curve, poor fit]"}
